Assay results as given in publication PMC4336329 (PLoS ONE, 2015).
Out of some 310,000 compounds screened, about 14,000 (4.5%) showed an effect of 50% or more. Effects have a minus sign here. Some of the results follow.
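Note: peak tail current of the secondary pulse compared with the same well before compound.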

The molecules below were run against human ether-à-go-go-related gene (hERG) potassium channel (human, UniProt Q12809) (assay: primary screen, population patch clamp on CHO cells stably expressing hERG).
Chain of human ether-à-go-go-related gene (hERG) potassium channel (Q12809 whole entry, looked up): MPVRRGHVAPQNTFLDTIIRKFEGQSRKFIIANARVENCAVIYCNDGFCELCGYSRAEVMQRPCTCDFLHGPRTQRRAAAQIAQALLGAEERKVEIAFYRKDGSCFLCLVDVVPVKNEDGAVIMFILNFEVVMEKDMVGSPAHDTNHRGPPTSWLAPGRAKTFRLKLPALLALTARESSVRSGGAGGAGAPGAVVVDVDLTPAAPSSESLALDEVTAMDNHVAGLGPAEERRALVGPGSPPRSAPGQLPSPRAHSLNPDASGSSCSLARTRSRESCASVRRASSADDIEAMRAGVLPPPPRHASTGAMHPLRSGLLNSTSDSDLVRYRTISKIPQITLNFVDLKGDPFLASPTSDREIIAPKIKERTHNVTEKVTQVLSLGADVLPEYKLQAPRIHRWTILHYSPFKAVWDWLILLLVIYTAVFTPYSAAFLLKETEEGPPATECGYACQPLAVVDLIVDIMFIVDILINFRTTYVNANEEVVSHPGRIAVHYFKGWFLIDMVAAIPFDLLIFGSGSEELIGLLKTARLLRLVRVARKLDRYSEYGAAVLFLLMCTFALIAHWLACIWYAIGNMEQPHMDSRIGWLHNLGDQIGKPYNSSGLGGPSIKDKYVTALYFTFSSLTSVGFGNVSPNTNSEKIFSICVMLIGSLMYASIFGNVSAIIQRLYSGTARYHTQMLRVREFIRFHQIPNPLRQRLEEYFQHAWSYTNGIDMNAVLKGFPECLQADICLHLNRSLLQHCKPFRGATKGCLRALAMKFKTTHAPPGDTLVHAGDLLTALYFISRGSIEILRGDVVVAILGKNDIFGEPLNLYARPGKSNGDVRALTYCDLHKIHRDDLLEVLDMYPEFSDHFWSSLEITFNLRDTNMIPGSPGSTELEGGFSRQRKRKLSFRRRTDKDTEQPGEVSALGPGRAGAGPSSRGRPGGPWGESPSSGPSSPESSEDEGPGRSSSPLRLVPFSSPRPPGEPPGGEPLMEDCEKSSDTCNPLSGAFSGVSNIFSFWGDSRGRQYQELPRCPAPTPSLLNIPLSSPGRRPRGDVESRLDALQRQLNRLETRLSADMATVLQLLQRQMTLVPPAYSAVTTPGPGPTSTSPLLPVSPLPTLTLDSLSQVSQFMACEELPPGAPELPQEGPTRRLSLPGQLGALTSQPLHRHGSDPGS
With COc1cc(NC(=O)CN2C(=O)CSc3ccc(S(=O)(=O)N4CCCC4)cc32)cc(OC)c1 the “hERG current change (%, negative = inhibition) at 10uM” value was 3.57%. With COc1ccc(-c2nn3c(C4CCCCC4)nnc3s2)cc1OC the “hERG current change (%, negative = inhibition) at 10uM” value was -15.2%. In the case of CN(C)S(=O)(=O)c1ccc(Cl)c(C(=O)Nc2cccc([N+](=O)[O-])c2)c1, the “hERG current change (%, negative = inhibition) at 10uM” value is reported as -16%. For CCOC(=O)c1cc2c(=O)n3ccccc3nc2n(Cc2ccco2)c1=NC(=O)c1cccnc1, the “hERG current change (%, negative = inhibition) at 10uM” value was -37.4%. For CC(=O)c1cccc(NC(=O)N2C3CCCC2CC(NC(=O)C2CC2)C3)c1 (stereo not shown), the “hERG current change (%, negative = inhibition) at 10uM” value was 17.2%. For COc1cc(C(=O)N(C)CC(=O)Nc2cccc(F)c2)ccc1OCc1ccccc1, the “hERG current change (%, negative = inhibition) at 10uM” value was -12.6%. For C=CCOC(=O)c1cn(CC)c2nc(C)ccc2c1=O, the “hERG current change (%, negative = inhibition) at 10uM” value was -5.77%. With CC(C)(C)N(CC#CCC(O)(c1ccccc1)C1CCCC1)CCO (stereo not shown) the “hERG current change (%, negative = inhibition) at 10uM” value was -1.14%. With CCc1cc(C(c2ccc(F)cc2)N2CCOCC2)c(NC(=O)c2ccccc2)s1 (stereo not shown) the “hERG current change (%, negative = inhibition) at 10uM” value was 2.1%. In the case of C=CCn1c(SCc2ccc(C(=O)NCCO)cc2)nc2ccccc2c1=O, the “hERG current change (%, negative = inhibition) at 10uM” value is reported as -12.8%. Nc1cc(=O)[nH]c(=O)n1CC1CC1 was tested, and the “hERG current change (%, negative = inhibition) at 10uM” value was 22%. C=CCn1c(N)c(C(=O)NCC2CCCO2)sc1=S (stereo not shown) was tested, and the “hERG current change (%, negative = inhibition) at 10uM” value was 1.39%. In the case of COc1ccc(CC(=O)N2CCN(c3ccccn3)CC2)cc1OC, the “hERG current change (%, negative = inhibition) at 10uM” value is reported as 8.9%. With CN1CCN(C(=O)CSc2ccc(C(F)(F)F)cc2[N+](=O)[O-])CC1 the “hERG current change (%, negative = inhibition) at 10uM” value was -10.2%. With Cc1ccc(S(=O)(=O)N(CC(=O)Nc2cccnc2)c2cccc([N+](=O)[O-])c2)cc1 the “hERG current change (%, negative = inhibition) at 10uM” value was -56.6%. For Cn1cc(/C=N/NC(=O)c2ccc(C#N)cc2F)c2ccccc21, the “hERG current change (%, negative = inhibition) at 10uM” value was 7.36%. COc1ccccc1NS(=O)(=O)c1cccc(C(=O)N/N=C/c2ccc(N3CCOCC3)cc2)c1 was tested, and the “hERG current change (%, negative = inhibition) at 10uM” value was -8.32%. For CCN1CCN(CCCN(Cc2ccco2)C(=S)Nc2ccc(Cl)cc2)CC1, the “hERG current change (%, negative = inhibition) at 10uM” value was -64.2%. With COc1ccc(-c2noc(C3CCCN(C(=O)c4cccc(C)c4)C3)n2)cc1 (stereo not shown) the “hERG current change (%, negative = inhibition) at 10uM” value was 5.57%. COc1cc(Cl)c(C)cc1NC(=O)c1cccc(OC)c1OC was tested, and the “hERG current change (%, negative = inhibition) at 10uM” value was 3.22%. In the case of O=C(COC(=O)CNC(=O)c1ccccc1)Nc1ccc(Cl)cc1C(F)(F)F, the “hERG current change (%, negative = inhibition) at 10uM” value is reported as -3.91%. COc1ccc(C#Cc2c(-c3ccsc3)oc3ccc(N4CCOCC4)cc23)cc1 was tested, and the “hERG current change (%, negative = inhibition) at 10uM” value was 7.27%. COc1cccc(NC(=O)Cc2ccc3ccccc3c2)c1 was tested, and the “hERG current change (%, negative = inhibition) at 10uM” value was -7.16%. COC(=O)Cc1ccc(NC(=O)c2ccc(NC(=O)c3ccco3)cc2)cc1 was tested, and the “hERG current change (%, negative = inhibition) at 10uM” value was 16.7%. In the case of Fc1ccc(-c2[nH]ncc2-c2nnnn2-c2ccccc2)c(F)c1, the “hERG current change (%, negative = inhibition) at 10uM” value is reported as -10.6%. With OCC1(Cc2ccccc2)CCCN(Cc2cn[nH]c2-c2ccccc2)C1 (stereo not shown) the “hERG current change (%, negative = inhibition) at 10uM” value was -16.4%. For COc1cccc(CN2CCNC(=O)C2CC(=O)N(C)C2CCCCC2)c1 (stereo not shown), the “hERG current change (%, negative = inhibition) at 10uM” value was -7.2%. In the case of Cc1cc(CN(C)C(=O)C2CCC(=O)N(CCc3cccc(F)c3)C2)on1 (stereo not shown), the “hERG current change (%, negative = inhibition) at 10uM” value is reported as 9.94%. For Cc1ccc2c(CC(=O)Nc3sccc3C(N)=O)coc2c1, the “hERG current change (%, negative = inhibition) at 10uM” value was -0.97%. For COc1ccc(CNC(=O)c2c(F)c(F)c(F)c(F)c2F)cc1, the “hERG current change (%, negative = inhibition) at 10uM” value was -22.3%. In the case of COC(=O)c1cn(NC(=O)c2cccc(N(C)C)c2)c(=O)c2ccccc12, the “hERG current change (%, negative = inhibition) at 10uM” value is reported as 12.9%. In the case of Cc1cc(O)c2c(c1)C(O)(C1OC(CO)C(O)C(O)C1O)c1cccc(O)c1C2=O (stereo not shown), the “hERG current change (%, negative = inhibition) at 10uM” value is reported as 8.22%. With CN1/C(=C\C=[N+](C)c2ccccc2)C(C)(C)c2ccccc21.[I-] the “hERG current change (%, negative = inhibition) at 10uM” value was -38.8%. CCCCN(C(=O)c1[nH]c(C)c(C(=O)OCC)c1C)c1c(N)n(CCCC)c(=O)[nH]c1=O was tested, and the “hERG current change (%, negative = inhibition) at 10uM” value was -13.7%. In the case of CC(C)(C)OC(=O)N1CCC(NC(=O)c2nc[nH]c2C(=O)NCc2ccccc2)CC1, the “hERG current change (%, negative = inhibition) at 10uM” value is reported as 4.1%. With COc1ccc(/C=C/C(=O)O)cc1O the “hERG current change (%, negative = inhibition) at 10uM” value was 14.2%. O=C1C2=C(CCCC2)C(=O)N1c1cccc(OCCBr)c1 was tested, and the “hERG current change (%, negative = inhibition) at 10uM” value was 9.89%. For CCOc1cc(NC2CS(=O)(=O)CC2O)c(OCC)cc1NC(=O)c1ccccc1 (stereo not shown), the “hERG current change (%, negative = inhibition) at 10uM” value was 5.95%. In the case of O=S1(=O)CCOC[C@H](CC2CCCCC2)N1Cc1cccc(Cl)c1, the “hERG current change (%, negative = inhibition) at 10uM” value is reported as -13.6%. For CCCCc1ccc(NC(=O)CSc2nc(=O)n3cc(C)ccc3n2)cc1, the “hERG current change (%, negative = inhibition) at 10uM” value was 7.42%. In the case of Cc1ccc(S(=O)(=O)N(CC(=O)N2CCN(c3ccccc3F)CC2)C2CCCCC2)cc1, the “hERG current change (%, negative = inhibition) at 10uM” value is reported as -5.01%. In the case of COc1cccc(C(=O)CSc2nnc(COc3cccc4cccnc34)o2)c1, the “hERG current change (%, negative = inhibition) at 10uM” value is reported as 3.73%. For COc1ccc(Cc2nnc(Nc3ccccc3)s2)cc1Br, the “hERG current change (%, negative = inhibition) at 10uM” value was 13.9%. c1cncc(-c2nnc(SCc3cccc4ccccc34)o2)c1 was tested, and the “hERG current change (%, negative = inhibition) at 10uM” value was -31.8%. CCCCn1c(SCC(=O)Nc2cccc(C)n2)nnc1-c1ccco1 was tested, and the “hERG current change (%, negative = inhibition) at 10uM” value was -76%. With CC(=O)c1cnc(Nc2cccc(C)c2)s1 the “hERG current change (%, negative = inhibition) at 10uM” value was 20.5%. O=C1CC(c2ccccc2)c2ccc(O)cc2O1 (stereo not shown) was tested, and the “hERG current change (%, negative = inhibition) at 10uM” value was 11.7%. Cc1cc(/C=C2/SC(=S)N(c3cccc(Cl)c3)C2=O)c(C)n1-c1cccnc1 was tested, and the “hERG current change (%, negative = inhibition) at 10uM” value was -0.0371%. For COc1ccc(C(O)(c2ccccc2OC)C(CN2CCOCC2)c2ccccc2)cc1.Cl (stereo not shown), the “hERG current change (%, negative = inhibition) at 10uM” value was -18.2%. In the case of CCOc1ccc(-n2nnc3c(=O)n(CC(=O)c4ccccc4)cnc32)cc1, the “hERG current change (%, negative = inhibition) at 10uM” value is reported as -1.37%. With Cc1ccccc1OCC(=O)Nc1nnc(C2CC2)s1 the “hERG current change (%, negative = inhibition) at 10uM” value was 4.5%. In the case of COC(=O)c1sccc1NC(=O)Nc1ccc(F)cc1F, the “hERG current change (%, negative = inhibition) at 10uM” value is reported as 7.71%. For O=C(N/N=C/c1cc([N+](=O)[O-])ccc1O)C12CC3CC(CC(C3)C1)C2, the “hERG current change (%, negative = inhibition) at 10uM” value was 8.39%. For O=C(NC1CCCCC1)c1ccc(COc2ccccc2)o1, the “hERG current change (%, negative = inhibition) at 10uM” value was 2.32%. CCc1nc2ccccc2c(=O)n1/N=C/c1ccc(Cl)cc1 was tested, and the “hERG current change (%, negative = inhibition) at 10uM” value was -8.59%.
